# From paper PMC6919601, “Identification of Plasmodium dipeptidyl aminopeptidase allosteric inhibitors by high throughput screening” (PLoS ONE, 2019)
# Hit rate of the full screen: of about 110,000 compounds, about 230 (0.21%) showed an effect of 50% or more. Some of the results follow.
# Target: DPAP1 (Plasmodium falciparum, UniProt Q8IIJ9)
# Assay: primary screen, percent inhibition; read by cleavage of a fluorogenic dipeptide substrate; higher = more effect of the substance
# Parameters: species or system P. falciparum D10 trophozoite lysates; single well
# 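Note: 30 min substrate incubation versus DMSO and 10 µM JCP410 controls.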
# Sequence of DPAP1 (Q8IIJ9 whole entry, looked up): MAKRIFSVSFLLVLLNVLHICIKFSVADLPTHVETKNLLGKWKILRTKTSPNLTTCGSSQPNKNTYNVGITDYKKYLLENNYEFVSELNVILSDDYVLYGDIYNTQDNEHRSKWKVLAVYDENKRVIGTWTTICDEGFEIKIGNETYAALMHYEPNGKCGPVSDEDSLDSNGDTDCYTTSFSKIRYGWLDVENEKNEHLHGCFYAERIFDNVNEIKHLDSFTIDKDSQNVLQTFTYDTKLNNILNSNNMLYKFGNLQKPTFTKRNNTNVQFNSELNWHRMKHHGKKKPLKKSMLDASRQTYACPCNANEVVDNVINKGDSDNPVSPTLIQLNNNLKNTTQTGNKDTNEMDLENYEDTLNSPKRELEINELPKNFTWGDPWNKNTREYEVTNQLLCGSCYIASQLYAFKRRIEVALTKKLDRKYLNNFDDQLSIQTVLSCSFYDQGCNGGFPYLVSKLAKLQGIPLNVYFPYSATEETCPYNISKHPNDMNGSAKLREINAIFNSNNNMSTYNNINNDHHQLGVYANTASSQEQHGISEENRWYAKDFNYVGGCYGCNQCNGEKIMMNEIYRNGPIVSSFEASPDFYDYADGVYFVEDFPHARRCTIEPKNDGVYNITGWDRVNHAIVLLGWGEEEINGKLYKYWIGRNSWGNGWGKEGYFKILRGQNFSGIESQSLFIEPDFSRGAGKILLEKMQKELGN
row,Compound,% Inhibition @ 10 uM [%]
1,O=C(Nc1ccc2nn(-c3cccc(Cl)c3)nc2c1)c1ccco1,3.05
2,CC1CCCCC1NC(=O)c1cc(O)nc2ccc(Br)cc12 (centres unmarked),-1.79
3,O=C(Cn1c(=O)c2cccn2c2cccnc21)NCCc1ccc(Cl)cc1,-7.56
4,CCCOc1ccc(N2C(=O)CC(N(CC34CC5CC(CC(C5)C3)C4)C(C)=O)C2=O)cc1 (centres unmarked),1.93
5,NS(=O)(=O)c1ccc(CCNC(=O)C(=O)NCC(c2cccnc2)N2CCOCC2)cc1 (centres unmarked),1.68
6,CCCCOc1ccc(/C=C2/C(=O)ON=C2c2ccccc2)cc1,-4.74
7,COc1ccc(OC)c(CN(CCN2CCOCC2)C(=O)Nc2cccc(Cl)c2)c1,2.01
8,Nc1nc(COc2ccccc2)nc2sc3c(c12)CCCC3,2.29
9,CCN1C(=O)c2cccc3c(NC(=O)c4cccc([N+](=O)[O-])c4)ccc1c23,-0.637
10,CCc1ccccc1NC(=O)c1ccn(C)n1,3.9
11,O=C1C2CCCN2C(c2ccc(Cl)cc2)N1c1ccccn1 (centres unmarked),2.9
12,CCO/C(O)=C1\C(CC)=NC2=C(C(=O)CC(C)(C)C2)C1c1cccc([N+](=O)[O-])c1 (centres unmarked),5.54
13,COc1cc(NC(=O)c2cnn3c(C(F)F)cc(-c4ccc(C)cc4)nc23)cc(OC)c1OC,-12.3
14,CCOc1ccc(C2CC(c3ccc(Cl)cc3)Nc3nnnn32)cc1OC (centres unmarked),0.0842
15,CCOC(=O)N1CCN(C(=O)c2c(C)nn(-c3ccc(F)cc3)c2-n2cccc2)CC1,7.65
16,CCOC(=O)c1cnc2c(-c3ccc(OC)c(OC)c3)c(C)nn2c1N,-3.48
17,NC(=O)C1CCN(c2c(-c3ccccc3)c(=O)c2=O)CC1,-4.68
18,Cc1cccc(C2CC(=O)NC3=C2C(=O)CCC3)c1 (centres unmarked),-4.53
19,O=C1C(Cl)=C(N2CCCCCC2)C(=O)N1c1cccc(Cl)c1,2.08
20,CCCCN(C)C(=O)C1CCN(c2nnc(C)c3c(C)n(-c4ccc(Cl)cc4)nc23)CC1,0.535
21,CN(C)c1ccc(/C=C2\C(=O)NC(=S)N(c3cccc(Cl)c3)C2=O)cc1,-0.267
22,Cc1cc(=O)n2nc(N3CCC(C(=O)NCC4CCCO4)CC3)sc2n1 (centres unmarked),1.38
23,O=C(NCc1cccnc1)c1ccc(-n2cnc3cccnc32)cc1,7.36
24,CCOc1cccc2cc(C(=O)/C=C/c3ccc(Cl)cc3)c(=O)oc12,-2.38
25,Cc1ccc(C(=O)C2C3C4C(=O)C5(c6ccccc6)C2C5C43)cc1 (centres unmarked),-11.4

row,Compound,% Inhibition @ 10 uM [%]
1,COc1ccc(N(CC(=O)N2CCCCC2)S(C)(=O)=O)cc1OC,-0.564
2,N#Cc1cccc(NC(=O)COc2ccc(Cl)cc2)c1,-4.86
3,O=C(CS(=O)(=O)Cc1ccccc1)NC(c1ccccc1)c1ccccc1,5.48
4,CC1CCCC(NC(=O)C2c3ccccc3C(=O)N2Cc2ccccc2Cl)C1C (centres unmarked),10.4
5,Cc1cccc(Cn2ccn(Cc3ccccc3)c(=O)c2=O)c1,3.17
6,CC(=O)Nc1ccc(C2=CSC3=NCCN23)cc1Br,5.65
7,COCc1c(C#N)c(O)nc(C)c1[N+](=O)[O-],-0.902
8,COc1ccc(OC)c(CN2CCN(Cc3ccc(F)cc3)CC2)c1,-2.84
9,COc1ccc2ncc3cnccc3c2c1,-8.01
10,CCC(CO)Nc1ncnc2c1cnn2-c1cc(Cl)ccc1C (centres unmarked),-5.01
11,Oc1ccccc1-c1cc(-c2ccccc2)nc(Cl)n1,4.63
12,CC(C)(C)c1ccc(C(=O)Nc2ccc(S(=O)(=O)N3CCOCC3)cc2)cc1Br,0.528
13,COc1cccc(CN2CCN(Cc3ccccc3OC)CC2)c1,-3.97
14,Cc1ccc(C2CC(C(F)(F)F)n3ncc(C(=O)NCc4ccccc4Cl)c3N2)cc1 (centres unmarked),10.1
15,COc1ccc(CN(C(=O)c2ccc(C(C)(C)C)cc2)C2CCS(=O)(=O)C2)cc1 (centres unmarked),0.561
16,CCO/C(O)=C(\C#N)c1nnnn1-c1ccccc1,2.7
17,O=C(CCNC(=O)Cn1cnc2sc3c(c2c1=O)CCCC3)NCc1ccco1,-4.23
18,CCOC(=O)C1=C(CN(C)Cc2ccccc2)NC(=O)NC1c1cccc(OC)c1OC (centres unmarked),-1.3
19,O=C1c2ccccc2C(=O)N2CC3(c4ccccc4)CN1CC(c1ccccc1)(C2)C3=O,0.00706
20,COc1ccc(C2C(C(=O)c3ccc4c(c3)OCCO4)=C(O)C(=O)N2Cc2ccco2)c(OC)c1 (centres unmarked),1.64
21,OC1CCN(Cc2ccccc2Br)CC1,4.81
22,O=C1NC(=S)SC1=C1CCCC1,4.68
23,CN(C)CCCN(C(=O)CN1C(=O)CCC1=O)c1nc2ccc(Br)cc2s1,-1.6
24,O=C(C1=C(N2CCOCC2)C(C(=O)c2ccccc2)CCC1)c1ccccc1 (centres unmarked),-1.65
25,COC(=O)c1ccccc1NS(=O)(=O)c1ccc(Cl)cc1,-0.546

row,Compound,% Inhibition @ 10 uM [%]
1,CC(=O)N[C@H]1[C@H](OCCN2C(=O)c3ccccc3C2=O)O[C@H](CO)[C@@H](O)[C@@H]1O,-1.74
2,COc1ccc(OC)c(NC(=O)c2cccc(NC(=O)c3ccccc3C(=O)O)c2)c1,-0.519
3,CC(C)Cn1cc(C(=O)N2CCC(Cc3ccccc3)CC2)c2c3ccccc3n(C)c2c1=O,-6.45
4,COc1ccc(S(=O)(=O)Nc2ccccn2)c(C)c1C,3.36
5,Cc1cc2c(c(=O)o1)C(c1cccc(C(F)(F)F)c1)C(C#N)=C(N)O2 (centres unmarked),2.7
6,O=C(NCc1cccnc1)c1cc2nc(-c3ccccc3)cc(-c3ccccc3)n2n1,-3.33
7,O=C(CSc1nnnn1-c1ccccc1)NC(C(=O)O)(c1ccccc1)c1ccccc1,0.032
8,Cc1nc(C)c(-c2csc(Nc3cccnc3)n2)s1,-1.69
9,Cc1ccc2nc3c(cc(C(=O)NCc4ccccc4)c(=N)n3CCN3CCOCC3)c(=O)n2c1,3.6
10,CCc1ccc(C2=CC(c3cccc(C)c3)n3nnnc3N2)cc1 (centres unmarked),-5.43
11,Cc1cccc(-c2cc(C(=O)N3CCCC3)c3ccccc3n2)c1,1.28
12,O=C(CCc1nnc2n(Cc3ccccc3)c(=O)c3ccccc3n12)NCCc1c[nH]c2ccccc12,-6.07
13,C=CCOc1ccc(/C=C2\Sc3ccccc3C2=O)cc1,-1.37
14,CC(=O)N1CCC(NC2CCCc3ccccc32)CC1 (centres unmarked),3.48
15,CN1CCN(c2nc3c(c(=O)[nH]c(=O)n3C)n2Cc2cccc(Br)c2)CC1,-3.37
16,O=C(c1ccc2c(c1)ncn2C1CCCCC1)N1CCN(Cc2ccccc2)CC1,4.81
17,CN1CCN(c2ncnc3c2cnn3Cc2ccc(Cl)cc2Cl)CC1,2.16
18,CN(C)CCOC1COCc2ccccc21 (centres unmarked),4.22
19,COc1cc2c(cc1OC)C(Cc1cccc(OC)c1OC)C(=O)N(C)CC2 (centres unmarked),-0.773
20,CCCCCC(=O)Nc1ccc(NC(=O)CC)cc1,-2.24
21,O=C(Nc1nonc1NC(=O)c1ccccc1)c1ccccc1,1.54
22,O=C(O)c1cnn2c(C(F)(F)F)cc(-c3cccs3)nc12,3.76
23,COc1cccc(/C=C/c2nc(C#N)c(NCc3ccccc3)o2)c1,0.895
24,O=C(CC1Sc2ccccc2NC1=O)Nc1ccc(C(F)(F)F)cc1 (centres unmarked),-3.93
25,O=C(O)CCCn1sc2ccccc2c1=O,3.04

row,Compound,% Inhibition @ 10 uM [%]
1,Cc1cccc(C)c1-n1c(C)cc(/C=C2\C(=N)N3N=C(S(C)(=O)=O)SC3=NC2=O)c1C,5.1
2,O=C(O)c1ccccc1N1C(=O)c2ccc(Oc3ccc([N+](=O)[O-])cc3)cc2C1=O,-3.16
3,CCN(CN1C(=O)c2ccccc2C1=O)c1ccccc1,1.96
4,COc1cccc(CNCc2c(C(=O)O)n(C)c3ccccc23)c1,1.93
5,CC1=NOC(=O)/C1=C\C=C/c1ccccc1,-5.2
6,CC(=O)c1c(OCc2ccccc2)ccc2c(C)cc(=O)oc12,0.778
7,O=C(c1ccccc1F)N1CCN(c2ccc(F)cc2)CC1,1.43
8,COC(=O)c1c(NC(=O)C(C)Oc2ccc(C)c(C)c2)sc2c1CCCC2 (centres unmarked),-1.1
9,Cc1ccc(C2c3c(oc4ccccc4c3=O)C(=O)N2c2nnc(C(C)C)s2)o1 (centres unmarked),7.65
10,CC1CCN(c2nc3ccc(C(=O)NCCN(C)C4CCCCC4)cc3s2)CC1,-0.637
11,CCN(Cc1ccccc1)C(=O)COc1ccc(Cl)cc1Cl,3.21
12,COc1ccc(CNC(=O)C2(S(=O)(=O)c3ccc(Cl)cc3)CC2)cc1,-4.53
13,CCCC(=O)/N=C(\N)Nc1nc(C)c2cc(C)ccc2n1,0.687
14,COC(=O)c1ccc(Cn2c(=O)cc(-c3ccccc3)c3c(C)nn(C)c32)cc1,-0.441
15,Cc1cccc(CS(=O)(=O)Cc2ccc(C(=O)NCCCN3CCCCCC3)o2)c1,-0.971
16,COc1ccccc1CN1CCN(S(=O)(=O)c2ccc(Cl)cc2)CC1,2.06
17,CC(=O)Nc1ccc(S(=O)(=O)Nc2ccc(C)cc2)cc1,5.03
18,CC(=O)Nc1ccc(NC(=O)C2CCN(C(=O)c3ccc(C(C)(C)C)cc3)CC2)cc1,6.65
19,CCNc1nc(SCC(=O)Nc2ccc(Cl)c(Cl)c2)nc(N2CCOCC2)n1,-5.1
20,CC1CCN(S(=O)(=O)c2ccc(NC(=O)C(C)(C)C)cc2)CC1,-6.17
21,CC1=CC(C)C2COC(c3ccccc3O)C1C2 (centres unmarked),4.35
22,CCCc1ncc(C(=O)c2ccc(OC)cc2)n1C,-3.35
23,O=C(NC(c1ccccc1)c1ccccc1)C1CCN(c2ncccn2)CC1,2.41
